Data as given in the supplement of paper PMC4604168 (melanoma cell lines).
Some of the results follow. Single values are uncertain, as repeats are few or missing.

Legend:
Assay in all cases: cell count relative to DMSO control; melanoma cells; higher = more viable cells
Settings in all cases: library dose: low library concentration; 72 h
[1] = system: MZ2-MEL
[2] = system: MeWo
[3] = system: RPMI7951
[4] = system: RVH-421
[5] = system: SkMel28
[6] = system: SkMel2
[7] = system: SkMel30
[8] = system: SkMel5
[9] = system: UACC257
[10] = system: UACC62
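Note: cell number obtained by counting DAPI-stained nuclei in high-throughput microscope images with image analysis software, screen run in 1,536-well plates.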

SMILES | cell count [1] [%] | cell count [2] [%] | cell count [3] [%] | cell count [4] [%] | cell count [5] [%] | cell count [6] [%] | cell count [7] [%] | cell count [8] [%] | cell count [9] [%] | cell count [10] [%]
C#Cc1cccc(Nc2ncnc3cc(OCCOC)c(OCCOC)cc23)c1 [erlotinib] + Cn1cncc1[C@@](N)(c1ccc(Cl)cc1)c1ccc2c(c1)c(-c1cccc(Cl)c1)cc(=O)n2C [tipifarnib] (first compound 0.8 µM, partner dose 0.01 µM) | 91.2 | 81 | 88.7 | 70.7 | 74.5 | 90.9 | 81.1 | 126 | 55.3 | 56.6
Clc1ccc(Nc2nnc(Cc3ccncc3)c3ccccc23)cc1 [vatalanib] + Cc1cc(N2CCOCC2)cc2[nH]c(-c3c(NC[C@@H](O)c4cccc(Cl)c4)cc[nH]c3=O)nc12 [BMS536924] (first compound 2 µM, partner dose 0.2 µM) | 104 | 97.4 | 103 | 96.9 | 88.7 | 95.8 | 106 | 89.7 | 82 | 96.1
COCC[n+]1c2c(n(Cc3cnccn3)c1C)C(=O)c1ccccc1C2=O + O=C(Nc1cccc(Cl)c1)Nc1ncc(CCNc2ncnc3ccsc23)s1 [SNS314] (first compound 0.0004 µM, partner dose 0.0008 µM) | 40.9 | 87.8 | 63 | 84.7 | 95.1 | 90 | 74 | 59.8 | 70.9 | 104
Cn1c(Nc2ccc(C(F)(F)F)cc2)nc2cc(Oc3ccnc(-c4ncc(C(F)(F)F)[nH]4)c3)ccc21 + NC(=O)Nc1cc(-c2cccc(F)c2)sc1C(=O)N[C@H]1CCCNC1 [AZD7762] (first compound 0.08 µM, partner dose 0.02 µM) | 93.3 | 69.2 | 47.7 | 91 | 66.8 | 87.5 | 55.2 | 74.7 | 54.2 | 56.8
COCC[n+]1c2c(n(Cc3cnccn3)c1C)C(=O)c1ccccc1C2=O + COc1cc(Nc2ncc(F)c(Nc3ccc4c(n3)NC(=O)C(C)(C)O4)n2)cc(OC)c1OC [Tamatinib] (first compound 0.0004 µM, partner dose 0.4 µM) | 44.9 | 88.4 | 77.1 | 78 | 65.8 | 90.3 | 85.3 | 62.3 | 54.8 | 75.9
COCC[n+]1c2c(n(Cc3cnccn3)c1C)C(=O)c1ccccc1C2=O + C[C@@H]1CCN(C(=O)CC#N)C[C@@H]1N(C)c1ncnc2[nH]ccc12 [CP690550] (first compound 0.0004 µM, partner dose 1 µM) | 45.5 | 89.8 | 77.7 | 79.6 | 86.9 | 93.3 | 1.13 | 63.9 | 68.5 | 101
Nc1cccc2c1CN(C1CCC(=O)NC1=O)C2=O (stereo unspecified) [lenalidomide] + O=C(CCCCCCC(=O)Nc1ccccc1)NO [vorinostat] (first compound 1 µM, partner dose 0.08 µM) | 107 | 92.3 | 102 | 101 | 72.9 | 102 | 101 | 85.6 | 85 | 80
O=C(CCCCCCC(=O)Nc1ccccc1)NO [vorinostat] + CN(NC(=O)CC(=O)NN(C)C(=S)c1ccccc1)C(=S)c1ccccc1 [STA4783] (first compound 0.08 µM, partner dose 0.006 µM) | 102 | 92.7 | 93.5 | 101 | 104 | 80.9 | 78.5 | 77.5 | 130 | 82
OCc1c[nH]c2ccccc12 [Indole-3-carbinol] + Cc1cc([N+](=O)[O-])ccc1NS(=O)(=O)c1cc(Cl)ccc1Cl [FH535] (first compound 0.8 µM, partner dose 1 µM) | 90.1 | 94.6 | 110 | 95.8 | 85.7 | 92.1 | 91.8 | 83.7 | 85.5 | 83.1
O=C(CCCCCCC(=O)Nc1ccccc1)NO [vorinostat] + CC(C)(C)c1cnc(CSc2cnc(NC(=O)C3CCNCC3)s2)o1 [SNS-032] (first compound 0.08 µM, partner dose 0.01 µM) | 109 | 94.2 | 89 | 99.8 | 82.8 | 90.7 | 105 | 102 | 91.3 | 98.5
C#Cc1cccc(Nc2ncnc3cc(OCCOC)c(OCCOC)cc23)c1 [erlotinib] + COCC[n+]1c2c(n(Cc3cnccn3)c1C)C(=O)c1ccccc1C2=O [YM155] (first compound 0.8 µM, partner dose 0.0004 µM) | 43.1 | 88.9 | 74.7 | 93.6 | 101 | 88.9 | 86.2 |  |  | 94.3
Cn1c(Nc2ccc(C(F)(F)F)cc2)nc2cc(Oc3ccnc(-c4ncc(C(F)(F)F)[nH]4)c3)ccc21 + Cn1nnc2c(C(N)=O)ncn2c1=O [temozolomide] (first compound 0.08 µM, partner dose 2 µM) | 86.9 | 72 | 51.9 | 58.5 | 43.3 | 63.7 | 53.4 |  |  | 47.3
Clc1ccc(Nc2nnc(Cc3ccncc3)c3ccccc23)cc1 [vatalanib] + O=C(CCCCCCC(=O)Nc1ccccc1)NO [vorinostat] (first compound 2 µM, partner dose 0.08 µM) | 99.9 | 79.3 | 101 | 113 | 88.2 | 82.5 | 101 | 78.8 | 96.4 | 103
OCc1c[nH]c2ccccc12 [Indole-3-carbinol] + COc1ccc(Cl)c(Nc2nc3ccccc3nc2NS(=O)(=O)c2cccc(NC(=O)C(C)(C)N)c2)c1 [XL147] (first compound 0.8 µM, partner dose 0.8 µM) | 93.9 | 96.4 | 106 | 90.2 | 97.1 | 103 | 80.9 |  |  | 91.7
Clc1ccc(Nc2nnc(Cc3ccncc3)c3ccccc23)cc1 [vatalanib] + Cn1c(Nc2ccc(C(F)(F)F)cc2)nc2cc(Oc3ccnc(-c4ncc(C(F)(F)F)[nH]4)c3)ccc21 [CHIR265] (first compound 2 µM, partner dose 0.08 µM) | 72.8 | 63.5 | 61.8 | 53.4 | 80.2 | 86.6 | 58.8 |  |  | 58.8
COCC[n+]1c2c(n(Cc3cnccn3)c1C)C(=O)c1ccccc1C2=O + C[C@]1(c2nc3c(C(N)=O)cccc3[nH]2)CCCN1 [Veliparib] (first compound 0.0004 µM, partner dose 1.4 µM) | 59.5 | 90.1 | 81.7 | 85.8 | 91.7 | 77.4 | 85 |  |  | 78.6
OCc1c[nH]c2ccccc12 [Indole-3-carbinol] + CC1(C)NC(=O)N(c2ccc([N+](=O)[O-])c(C(F)(F)F)c2)C1=O [nilutamide] (first compound 0.8 µM, partner dose 1 µM) | 92.5 | 104 | 118 | 92 | 98.6 | 97.2 | 101 | 100 | 113 | 96.2
OCc1c[nH]c2ccccc12 [Indole-3-carbinol] + O=C(CCCCCCC(=O)Nc1ccccc1)NO [vorinostat] (first compound 0.8 µM, partner dose 0.08 µM) | 98 | 91.2 | 100 | 104 | 86.2 | 107 | 149 | 93.6 | 85.3 | 101
Nc1cccc2c1CN(C1CCC(=O)NC1=O)C2=O (stereo unspecified) [lenalidomide] + Cn1nnc2c(C(N)=O)ncn2c1=O [temozolomide] (first compound 1 µM, partner dose 2 µM) | 92.6 | 99.6 | 89.6 | 92 | 90.5 | 90.7 | 110 |  |  | 78.4
Clc1ccc(Nc2nnc(Cc3ccncc3)c3ccccc23)cc1 [vatalanib] + Cn1nnc2c(C(N)=O)ncn2c1=O [temozolomide] (first compound 2 µM, partner dose 2 µM) | 95.5 | 70.4 | 89.1 | 80 | 78 | 98.2 | 91 |  |  | 92.1
OCc1c[nH]c2ccccc12 [Indole-3-carbinol] + Cc1nc(Nc2ncc(C(=O)Nc3c(C)cccc3Cl)s2)cc(N2CCN(CCO)CC2)n1 [dasatanib] (first compound 0.8 µM, partner dose 0.004 µM) | 73.3 | 88.4 | 65 | 80.4 | 73.4 | 101 | 87 |  |  | 79.2
Cn1c(Nc2ccc(C(F)(F)F)cc2)nc2cc(Oc3ccnc(-c4ncc(C(F)(F)F)[nH]4)c3)ccc21 + COCC[n+]1c2c(n(Cc3cnccn3)c1C)C(=O)c1ccccc1C2=O [YM155] (first compound 0.08 µM, partner dose 0.0004 µM) | 52.6 | 61.1 | 65 | 77.1 | 65.5 | 75.2 | 55.1 |  |  | 56
Cn1c(Nc2ccc(C(F)(F)F)cc2)nc2cc(Oc3ccnc(-c4ncc(C(F)(F)F)[nH]4)c3)ccc21 + C[C@]1(c2nc3c(C(N)=O)cccc3[nH]2)CCCN1 [Veliparib] (first compound 0.08 µM, partner dose 1.4 µM) | 75.4 | 55.4 | 59 | 63.4 | 49.6 | 69.4 | 59.5 |  |  | 52.7
C#Cc1cccc(Nc2ncnc3cc(OCCOC)c(OCCOC)cc23)c1 [erlotinib] + Cn1nnc2c(C(N)=O)ncn2c1=O [temozolomide] (first compound 0.8 µM, partner dose 2 µM) | 96.3 | 96.6 | 90.4 | 87.9 | 77.9 | 103 | 79 |  |  | 87.1
COCC[n+]1c2c(n(Cc3cnccn3)c1C)C(=O)c1ccccc1C2=O + Nc1cccc2c1CN(C1CCC(=O)NC1=O)C2=O [lenalidomide] (first compound 0.0004 µM, partner dose 1 µM) | 46.2 | 98.8 | 67.3 | 111 | 103 | 78.8 | 86.6 |  |  | 96.2
